The test relates to NCI-H322M lung. As to the kind of experiment: NCI-60 cell line screen, 48 h.

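Where inhibition never reached the appropriate level, the endpoint shown equals the highest concentration tested. Otherwise, values were interpolated linearly from a five-concentration, 48-hour dose response in 96-well plates. At the GI50, growth is halved. TGI: concentration producing complete growth inhibition.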 Some results are limits rather than exact numbers.

`Cn1cc(NC(=O)c2cc(NC(=O)c3ccc(/C=C/c4ccccc4)cc3)cn2C)cc1C(=O)NCCCN1CCOCC1`: the GI50 is more than 28 µM and the TGI is more than 28 µM.

On to `O=C(COc1ccc(NC(=O)Nc2ccc(Cl)cc2)cc1)N/N=C/c1ccccc1`, for which the GI50 was 3.31 µM and the TGI is more than 100 µM.

These data come from PubChem BioAssay (NCI).
